Data reported in the supplement of paper PMC6531468.
This is one part of the list. These are enrichments in a pooled selection; single values are uncertain. Scores sum up all selected molecules that hold the word; the word was not tested alone.

What was measured:
Test in all cases: 6-mer SELEX enrichment z-score vs GST control; IMP3 is the RNA-binding protein IGF2BP3; higher = more enriched by binding
IMP3 KH1-4 = settings: construct: KH1-4 (164-579); SELEX round: R4
Protocol: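 SELEX-seq with GST-tagged IMP3 KH1-4 (Pro164-Lys579) and an N40 RNA pool, round 4. 6-mer z-score of sequence-tag enrichment normalised to the corresponding GST SELEX round; RNA k-mers written as DNA (T for U).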

IMP3 RRM1-2 = settings: construct: RRM1-2 (1-163); SELEX round: R2
Sequence of IMP3 RRM1-2 (chain, as listed by the source): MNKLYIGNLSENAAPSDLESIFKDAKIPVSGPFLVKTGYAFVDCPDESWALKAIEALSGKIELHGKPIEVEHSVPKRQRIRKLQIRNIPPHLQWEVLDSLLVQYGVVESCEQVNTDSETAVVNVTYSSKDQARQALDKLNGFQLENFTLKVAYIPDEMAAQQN
Protocol: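 SELEX-seq with GST-tagged IMP3 RRM1-2 (Met1-Asn163) and an N40 RNA pool, round 2. 6-mer enrichment z-score normalised to GST SELEX. RNA written as DNA (T = U).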

IMP3 full-length = IMP3 full-length (UniProt O00425); settings: construct: FL IMP3 (1-579); SELEX round: R4
Sequence of UniProt O00425 (O00425 whole entry): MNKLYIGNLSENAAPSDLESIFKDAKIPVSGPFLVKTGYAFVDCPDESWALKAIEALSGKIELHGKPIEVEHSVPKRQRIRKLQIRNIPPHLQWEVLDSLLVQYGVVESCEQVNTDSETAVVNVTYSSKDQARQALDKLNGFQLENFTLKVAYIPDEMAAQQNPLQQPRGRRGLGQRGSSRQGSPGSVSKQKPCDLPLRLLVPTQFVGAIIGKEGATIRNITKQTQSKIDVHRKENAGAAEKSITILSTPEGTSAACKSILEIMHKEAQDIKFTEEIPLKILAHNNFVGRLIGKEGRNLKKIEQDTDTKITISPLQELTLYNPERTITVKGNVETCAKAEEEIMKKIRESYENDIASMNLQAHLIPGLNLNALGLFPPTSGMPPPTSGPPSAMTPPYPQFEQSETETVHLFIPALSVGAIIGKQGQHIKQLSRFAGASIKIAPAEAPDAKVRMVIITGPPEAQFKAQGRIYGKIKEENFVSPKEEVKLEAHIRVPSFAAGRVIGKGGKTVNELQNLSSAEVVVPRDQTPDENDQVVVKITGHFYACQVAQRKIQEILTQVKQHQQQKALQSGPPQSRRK
Protocol: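 SELEX-seq with GST-tagged full-length IMP3 and an N40 RNA pool, round 4. Each 6-mer is scored as an enrichment z-score of sequence tags containing it, normalised to the matching GST SELEX round. RNA written as DNA (T = U).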

IMP3 KH1-2 = settings: construct: KH1-2 (164-376); SELEX round: R4
Sequence of IMP3 KH1-2 (chain, as listed by the source): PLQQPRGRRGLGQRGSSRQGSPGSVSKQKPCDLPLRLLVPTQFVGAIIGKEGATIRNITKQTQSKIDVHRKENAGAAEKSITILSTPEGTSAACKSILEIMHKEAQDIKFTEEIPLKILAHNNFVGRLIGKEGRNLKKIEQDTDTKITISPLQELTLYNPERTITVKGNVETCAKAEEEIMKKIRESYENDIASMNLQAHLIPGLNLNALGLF
Protocol: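 SELEX-seq with GST-tagged IMP3 KH1-2 (Pro164-Phe376) and an N40 RNA pool, round 4 (stringent 300/600 mM KCl washes). 6-mer z-score of sequence-tag enrichment normalised to the corresponding GST SELEX round; RNA k-mers written as DNA (T for U).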

IMP3 KH3-4 = settings: construct: KH3-4 (377-579); SELEX round: R4
Sequence of IMP3 KH3-4 (chain, as listed by the source): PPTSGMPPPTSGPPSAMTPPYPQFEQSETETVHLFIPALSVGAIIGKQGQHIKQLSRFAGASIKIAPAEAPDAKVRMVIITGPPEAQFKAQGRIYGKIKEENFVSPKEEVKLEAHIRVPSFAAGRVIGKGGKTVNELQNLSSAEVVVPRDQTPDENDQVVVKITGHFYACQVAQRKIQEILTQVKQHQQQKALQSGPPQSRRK
Protocol: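 SELEX-seq with GST-tagged IMP3 KH3-4 (Pro377-Lys579) and an N40 RNA pool, round 4. 6-mer z-score of sequence-tag enrichment normalised to the corresponding GST SELEX round; RNA k-mers written as DNA (T for U).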

Sequence of IMP3 KH1-4 (chain, as listed by the source): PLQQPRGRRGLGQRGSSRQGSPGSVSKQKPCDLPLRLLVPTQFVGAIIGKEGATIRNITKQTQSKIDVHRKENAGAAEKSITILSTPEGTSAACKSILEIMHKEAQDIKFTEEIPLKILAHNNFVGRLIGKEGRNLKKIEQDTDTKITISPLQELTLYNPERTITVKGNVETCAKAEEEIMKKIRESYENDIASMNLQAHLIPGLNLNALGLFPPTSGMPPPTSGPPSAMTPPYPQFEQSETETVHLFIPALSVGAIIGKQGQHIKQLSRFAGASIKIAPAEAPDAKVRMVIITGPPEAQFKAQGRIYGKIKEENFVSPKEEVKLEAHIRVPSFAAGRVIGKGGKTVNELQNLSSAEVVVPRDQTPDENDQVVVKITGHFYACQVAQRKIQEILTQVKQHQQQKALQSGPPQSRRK

| Sequence | 6-mer SELEX enrichment z-score (IMP3 KH1-4) | 6-mer SELEX enrichment z-score (IMP3 RRM1-2) | 6-mer SELEX enrichment z-score (IMP3 full-length) | 6-mer SELEX enrichment z-score (IMP3 KH1-2) | 6-mer SELEX enrichment z-score (IMP3 KH3-4) |
| --- | --- | --- | --- | --- | --- |
| CTGCAG | 0.418 | 0.172 | 0.495 | 0.478 | 0.075 |
| TGACGG | -0.011 | -0.46 | 0.037 | -0.136 | -0.022 |
| TTCAGC | -0.066 | 0.745 | 0.613 | -0.026 | -0.1 |
| CAGGGG | 1.07 | 0.236 | 0.585 | 1.41 | 0.96 |
| GGTACG | -0.3 | 0.105 | 0.263 | -0.269 | -0.291 |
| GATCCC | -0.57 | -0.691 | -0.642 | -0.623 | -1.14 |
| AGTCTG | -0.056 | 0.2 | 0.101 | -0.07 | -0.103 |
| ATTCGT | 0.237 | 0.228 | 0.038 | 0.032 | 0.21 |
| TATGAG | -0.014 | -0.169 | -0.464 | -0.245 | 0.387 |
| CGAAAT | -0.63 | -1.27 | -1.04 | -0.548 | -0.296 |
| GACAAT | 0.759 | -0.159 | 0.397 | 0.627 | 0.837 |
| CGCGCG | -1.21 | 0.259 | -0.167 | -0.941 | -0.956 |
| TATCGT | 0.151 | 0.318 | 0.057 | 0.044 | 0.237 |
| ATTGCA | 1.4 | 0.192 | 0.564 | 1.21 | 1.13 |
| CGACAC | -0.461 | 0.289 | 0.523 | -0.595 | -1.18 |
| GGCAGG | 1.35 | 0.119 | 1.72 | 1.19 | 1.06 |
| AAGTAG | -0.131 | -0.204 | -0.462 | -0.342 | 0.09 |
| GGAGTT | 0.042 | 0.131 | -0.015 | 0.093 | 0.268 |
| AGACAA | 0.088 | -0.117 | -0.33 | 0.181 | 0.363 |
| CAAGAG | -1.41 | -0.547 | -0.682 | -1.31 | -1.17 |

| Sequence | 6-mer SELEX enrichment z-score (IMP3 KH1-4) | 6-mer SELEX enrichment z-score (IMP3 RRM1-2) | 6-mer SELEX enrichment z-score (IMP3 full-length) | 6-mer SELEX enrichment z-score (IMP3 KH1-2) | 6-mer SELEX enrichment z-score (IMP3 KH3-4) |
| --- | --- | --- | --- | --- | --- |
| AAACGT | -1.69 | -1.34 | -1.64 | -1.78 | -1.53 |
| AGGTGC | -0.317 | 0.181 | 0 | -0.262 | -0.206 |
| CAATTC | 0.815 | 0.956 | 1.08 | 0.813 | 0.361 |
| TAACCA | -0.259 | -0.143 | -0.939 | -0.128 | -0.374 |
| TGTGCT | 0.219 | 0.168 | -0.085 | 0.113 | 0.218 |
| ACATTG | 0.78 | 0.767 | 0.918 | 0.642 | 0.694 |
| AGAGCT | -1.3 | -0.021 | -0.571 | -1.13 | -1.06 |
| AATGGT | 0.129 | -0.071 | -0.085 | 0.007 | 0.287 |
| CATCCA | 0.515 | 1.3 | 1 | 0.4 | -0.408 |
| ATATTC | 1.42 | 0.435 | 0.546 | 1.38 | 1.46 |
| GGTCAG | 0.525 | 0.159 | 0.681 | 0.482 | 0.4 |
| ACTATT | 1.64 | 0.184 | 0.25 | 1.46 | 1.88 |
| TTTCGC | 0.089 | 0.325 | -0.053 | 0.062 | 0.006 |
| ACACGT | -0.057 | 0.246 | 0.502 | -0.308 | -0.371 |
| GAGCGC | -4.78 | -0.412 | -2.62 | -4.44 | -4.31 |
| CAGCAG | 0.519 | 1.68 | 1.84 | 0.503 | 0.149 |
| TCCGCC | 0.349 | -0.276 | 0.152 | 0.499 | -0.563 |
| TGCCGA | -1.24 | -0.74 | -0.755 | -1.1 | -1.19 |
| TGCTTT | 0.403 | 0.348 | 0.111 | 0.459 | 0.518 |
| CTACCA | -0.152 | 0.037 | -0.529 | -0.25 | -0.588 |

| Sequence | 6-mer SELEX enrichment z-score (IMP3 KH1-4) | 6-mer SELEX enrichment z-score (IMP3 RRM1-2) | 6-mer SELEX enrichment z-score (IMP3 full-length) | 6-mer SELEX enrichment z-score (IMP3 KH1-2) | 6-mer SELEX enrichment z-score (IMP3 KH3-4) |
| --- | --- | --- | --- | --- | --- |
| GGGATA | 0.524 | -0.185 | 0.09 | 0.512 | 0.768 |
| CCGAGT | -1.98 | -0.429 | -0.937 | -1.73 | -1.75 |
| ATCAGG | 0.64 | 1.42 | 1.41 | 0.452 | 0.538 |
| AATTGG | -0.12 | -0.153 | -0.243 | -0.168 | 0.099 |
| CTTGTG | -0.394 | 0.163 | -0.308 | -0.376 | -0.266 |
| ATGCTG | 0.621 | -0.089 | 0.092 | 0.485 | 0.452 |
| CCCGGG | -1.45 | -0.651 | -0.481 | -1.06 | -1.32 |
| ATATTA | 2.11 | 0.164 | 0.54 | 1.99 | 3.1 |
| ATCGTA | -0.405 | -0.079 | -0.286 | -0.491 | -0.354 |
| GGCCGG | 0.587 | -0.179 | 1.13 | 0.792 | 0.494 |
| CCTTCT | 0.319 | 0.143 | -0.174 | 0.315 | -0.035 |
| TAGAAG | 0.354 | -0.535 | -0.274 | 0.191 | 0.722 |
| TGCTCG | -0.544 | 0.26 | 0.056 | -0.34 | -0.304 |
| AGTTTA | -0.026 | 0.054 | -0.178 | -0.007 | 0.297 |
| TCCTAT | 0.733 | 0.15 | -0.027 | 0.574 | 0.49 |
| CCAGTG | -0.344 | -0.336 | -0.107 | -0.339 | -0.481 |
| GTGCGC | -0.006 | 0.077 | 0.254 | 0.046 | -0.094 |
| CGCGCC | -0.476 | -0.273 | 0.301 | -0.333 | -0.81 |
| AGCAGC | 0.194 | 0.623 | 1.14 | 0.177 | -0.03 |
| ATACGC | 1.09 | -0.199 | 0.378 | 0.991 | 0.659 |
